From article PMC12136788
This is one part of the list.

T1: UNK ZnF1-3 (human, UniProt Q9C0B0 31-174)
T1 sequence: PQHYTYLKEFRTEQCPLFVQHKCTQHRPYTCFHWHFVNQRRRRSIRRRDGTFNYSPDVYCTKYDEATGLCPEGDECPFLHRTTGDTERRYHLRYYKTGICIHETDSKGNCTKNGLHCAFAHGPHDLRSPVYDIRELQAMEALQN

B1: chr9:95050471:95050472:-_ENSG00000196305_ENST00000443024|hu_hu|FALSE|FALSE (ssRNA)
RNA: GGGAGUUCUACAGUCCGACGAUCAUCCCAUCCAAAUCUUCUGUCAACAUGAAACCCACUCUGGUGAGCAUAUCUUGUAACUAUAUCUUUAAUUGUACCCGCAAGUAUAUGUCCAUAGUGAGGCAGUCCAGUUGCAAAAGGAGGCAACAGAGGAUUGAGCAUCA
B2: chr16:20679341:20679342:+_ENSMUSG00000045983_ENSMUST00000044783|mus_hu|motif|central (ssRNA)
RNA: GGGAGUUCUACAGUCCGACGAUCGACUGGGGAUGGUGAUGGGGUCGGAGAAGGCGACGAAGGCUGGGAUUCUGAAGGGCGGUGCUCUGGGCCAGGCAGCCCUGGCCGGUCAGCAAUGAUUGCUCCCUGUGACCGGUCAUCUGGCAACAGAGGAUUGAGCAUCA
B3: 226576444_226578218_713_3pUTR_ENSG00000143799_ENST00000366794|human|control|control (ssRNA)
RNA: GGGAGUUCUACAGUCCGACGAUCCCUUUUCUCUUUCCUUCACUCUUGACUCCUGGGAGCUGCUUCUUCAGGGCUUCUUUAUCCUCUGUAGCAAGGAGGCUGAAGCCCUUGAGCUGACUCGCACUGUACUCGGGCCGGAAACCCCAACAGAGGAUUGAGCAUCA
B4: 4614467_4615035_692_5pUTR_ENSMUSG00000045045_ENSMUST00000113822|mouse|control|control (ssRNA)
RNA: GGGAGUUCUACAGUCCGACGAUCCACUGGCCAGCAGCAGCAAUAGGAGCGGCGGGGCCAUGGUGAGUGCCCUGGUGUCCGUCGCUCAGGGGGCGCGGGCUGGCCUCCCCGCGGACCCAGCCGGCCCCUGCCGACUCCAGGCCGCAACAGAGGAUUGAGCAUCA
B5: chr11:10819154:10819155:-_ENSG00000110321_ENST00000525681|hu_hu|motif|central (ssRNA)
RNA: GGGAGUUCUACAGUCCGACGAUCCUUAUGAUGUAAUUAUUGCAUGCUGCUAAUAUACUAUCUAAACAUUAAAGAUACUCCGGAAAUAUUUGAUGGUAGACUAUGAUUAAGACAUUACACUACAAAAAAACCUUAUGCAGAAGGCAACAGAGGAUUGAGCAUCA
B6: chr2:149803492:149803493:+_ENSG00000168280_ENST00000414838|hu_mus|FALSE|FALSE (ssRNA)
RNA: GGGAGUUCUACAGUCCGACGAUCGGUUUUGCUGACCUUUUCACUCCCAGCCAAAUCAACCAAAUACAGCUUCCCGCUGAGUUUUUUUUCAGUCUCCACAUUCUCUUGCUUAAUGUUAAUCAGGAAGAUACUGUGACUCCUAGACAACAGAGGAUUGAGCAUCA

The binders below were run against T1, UNK ZnF1-3 (assay: nsRBNS (natural sequence RNA bind-n-seq); RBNS binding buffer (assumed for nsRBNS): 25 mM Tris pH 7.5, 150 mM KCl, 3 mM MgCl2, 0.01% Triton X-100, 500 ug/ml BSA, 20 U/ml SUPERase-In, 4 C; UNK is unkempt and MSI1 is Musashi-1; names of the RNAs are library labels; protein concentration not given here; high values mean tight binding).

Binder	binding signal [enrichment R]
B1	1.13
B2	0.931
B3	0.63
B4	0.84
B5	1.08
B6	0.719
